Some of the results follow.
system: PfAP2-HC AP2 domain (GST-tagged); assay: gcPBM binding intensity (ln(normalized median fluorescence intensity)); higher = stronger DNA binding
Procedure, shortened: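 After 1 h on an Agilent 4 × 180k array of primer-extended double-stranded 36-bp intergenic genomic probes and negative controls, bound GST-tagged P. falciparum DNA-binding domains were detected with Alexa488 anti-GST antibody and scanned at 488 nm. The domains had been expressed in E. coli, and binding took place in 1× PBS with 1% milk, 0.2 mg/ml BSA, 0.5% salmon testes DNA and 0.03% Triton X-100. Binding intensity is the highest Masliner-normalised natural-log median intensity across replicate spots of either probe orientation.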

| Sequence | gcPBM binding intensity (ln) |
| --- | --- |
| TAAAAAAAAAGAAGGGGTACATGGATAATATATAAA [XGTACX_site8386] | 9.75 |
| TGTATAACCTGTGTTACACACATTATGATTTATATA [CACACA_site525] | 10.2 |
| CATTTTTACCGGTACTGTACATAAAAAAAAAAAAAG [XGTACX_site1548] | 9.59 |
| TTATATGTTTTACAACGTACACAAAAAAAACTTATA [XGTACX_site4413] | 9.41 |
| AGTTATATGGTTAATACACACAACAAATGTTTCTTC [CACACA_site6642] | 9.76 |
| GTGTGATGGTACAATATACACACTTAAAAAAAAAAA [CACACA_site8769] | 9.72 |
| AAAAAATATATTTGCACACTCAAAAAAAAAAAAAAA [CACACA_site859] | 9.46 |
| ATACATAAAATTAAAACACACATTTTATTAAATACG [CACACA_site2167] | 9.73 |
| TAAGAAATAAATAGTACACACATAGACACACGCACA [CACACA_site6821] | 10.7 |
| AATATAACTTAGAATTGTACATAAAAAAAAATATAT [XGTACX_site3313] | 9.75 |
| TATAAAATACATTTATAATATATATATATATTTTTT [TGCATGCA_negctrl_site435] | 9.59 |
| ATATGAAATATATAAATATGTTTATATATATATATA [GTGCAC_negctrl_site94] | 9.5 |
| ATTTATTTATACAAAGTGCAATATTTTGTTAAAGTC [GTGCAC_site9618] | 9.63 |
| AAACAAAATATGGTTCATGAGCAAAAGTTTATTTTG [XGTACX_negctrl_site531] | 9.74 |
| AATGTAAAATATAAATGTACATATATATATATATAT [XGTACX_site5071] | 9.65 |
| CTCTTTTCTTATAATACACACAGTAATATATATATA [CACACA_site1520] | 9.87 |
| ATACATATATATATATGTACACATAAACATGAGTGA [XGTACX_site3200] | 9.85 |
| TAATGGAAACCATTTATTTTCTGCAATATATTTTTT [CACACA_negctrl_site1653] | 9.47 |
| TGTGTTTATACGTTTTGTACATATTTTTATTTTGTA [XGTACX_site6425] | 9.74 |

| Sequence | gcPBM binding intensity (ln) |
| --- | --- |
| TTTACATCAACCTTTTCACACATTCATATACAGATA [CACACA_site6152] | 9.68 |
| TTCAAAAAATAAAATAATAATATATATATAAATATA [XGTACX_negctrl_site84] | 9.49 |
| TCATTAAAGGAAAAATGTACGTATAAATAAATATAT [XGTACX_site2587] | 9.6 |
| TTTTTTATATTTAAACTTCACATGGTTTTCATTTAT [XGTACX_negctrl_site291] | 9.92 |
| ATGTAGGTTAATTATTGTACGTAGGGGGTGTATATT [XGTACX_site3973] | 10 |
| TTCAGAGAATAAAAATGTACATATAATATTTTAAAA [XGTACX_site577] | 9.55 |
| CTCTTGTCATTTTGCACACACACATGTATAGGTTAT [CACACA_site3057] | 10.2 |
| TAAATTTGTGGGATTTCACACAGGTTTATTTACATT [CACACA_site5455] | 9.75 |
| TTGCTTATTAAATGGGGTACATTATATATATATATA [XGTACX_site2515] | 9.74 |
| GTGTTAACTATTATGAGTACTTATGTATTAATTCAT [XGTACX_site7767] | 9.66 |
| TTTCTAATTTATATCACACACATATATTTATAGTAA [CACACA_site6280] | 9.77 |
| GTTTACTAATATTGCACACGAATATGAAAAAGAGAA [CACACA_site2897] | 9.94 |
| AGAGTATATAAAGTAACACACAATAAAATAAAATAA [CACACA_site2328] | 10.3 |
| CATATAGTATAAATTTGTACATAAATATATATATAT [XGTACX_site7477] | 9.65 |
| ATAATATCTTCTTTTTTTTTTTTTTTTTTTTTTTTT [CACACA_negctrl_site1005] | 9.23 |
| AAAAAAAAAAAAAAAAGTACATATATATATAATTAT [XGTACX_site7836] | 9.9 |
| AAATGATGCATTTGTCATTAAAATTGTGAAATATTA [CACACA_negctrl_site231] | 9.44 |
| ATATATATATAATGTGTACACACATATGTATTTATA [CACACA_site8170] | 9.99 |
| TAATTAAGATGATAAAAATTGAAAAAACAATTTTAA [CACACA_negctrl_site658] | 9.23 |

| Sequence | gcPBM binding intensity (ln) |
| --- | --- |
| TATAATAAAATATGTACACACATACAGACATATATA [CACACA_site6693] | 9.99 |
| CTGTTTTACTTTAGTAGTACAATAAAAATATAAAAA [XGTACX_site2934] | 9.36 |
| TATTACCCATATTATACACACATATATTATATATAT [CACACA_site1567] | 10.2 |
| AAAAAAAAAAAACATACACACAAATATATACATACA [CACACA_site4011] | 10.2 |
| TACATACACGGACACACACACATATATATATATATA [CACACA_site5883] | 10.7 |
| AAGAAATATATATATATATATATATATATATATGTA [TGCATGCA_negctrl_site442] | 9.75 |
| TAATTTTATATTAAAAGTACATAATAAAAACTATAA [XGTACX_site8779] | 9.48 |
| TTTAAAAACAAATATTGTACAAATTAAAATATATCA [XGTACX_site7220] | 9.6 |
| AGAGCATAATAAAACACACACATACATACAGATATA [CACACA_site4671] | 10.3 |
| TGATGATATAAAAACACACACATATAATATAATACT [CACACA_site1208] | 10.8 |
| CACTAATATATATACAGTACATAATAAAGTATATAA [XGTACX_site6875] | 9.71 |
| TTATATTTATAAAGGTGTACCTTAAAATGATTTTAC [XGTACX_site3774] | 9.38 |
| AAAATTAAATAAAAATGTACAGAAATATTATATGAA [XGTACX_site5695] | 9.76 |
| ATATATTATATTAATTGTACATAAAAAAGAGAAAAA [XGTACX_site3366] | 9.62 |
| ATGTATAAACAAAAGGGTACATATATATATATATAT [XGTACX_site2087] | 9.69 |
| AGAAAAATTACAAAATGTACATAATGTGTTATTAAT [XGTACX_site7877] | 9.72 |
| ATTAAGTACTAAAAAGTGCAGTTCGGTACTGTGCTT [GTGCAC_site9755] | 9.65 |
| AATAAAAAACATGAAAGTACTTTAAAAAAGGTAATA [XGTACX_site1897] | 10.1 |
